# Laboratory results as given in patent publication US20220098304A1 (JIANGSU HENGRUI MEDICINE, published 2022).
# Residue numbers refer to the chain shown, from its start.
# B1: Hu33-5.IgG4AA (antibody)
# heavy: EVQLVESGGGLVQPGGSLRLSCAASGFTFSSYAMSWVRQAPGKGLEWVATISGGGVDTYYQDNVQGRFTISRDNAKNSLYLQMNSLRAEDTAVYYCASPYGHGYFDVWGQGTTVTVSSASTKGPSVFPLAPCSRSTSESTAALGCLVKDYFPEPVTVSWNSGALTSGVHTFPAVLQSSGLYSLSSVVTVPSSSLGTKTYTCNVDHKPSNTKVDKRV[human IgG4 Fc with S228P F234A L235A (EU numbers) left out here]
# light: DIQMTQSPSSLSASVGDRVTITCRASQDINNFLNWYQQKPGKAPKLLIYYTSSLHSGVPSRFSGSGSGTDYTLTISSLQPEDFATYYCQQGNTLPWTFGGGTKVEIKRTVAAPSVFIFPPSDEQLKSGTASVVCLLNNFYPREAKVQWKVDNALQSGNSQESVTEQDSKDSTYSLSSTLTLSKADYEKHKVYACEVTHQGLSSPVTKSFNRGEC
# notes: Full-length IgG4-AA, kappa
# B2: Hu33-2.IgG4AA (antibody)
# heavy: B1 heavy
# light: B1 light with Y71F
# notes: Full-length IgG4-AA, kappa
# B3: Hu33-3.IgG4AA (antibody)
# heavy: B1 heavy with E1K
# light: B1 light with Y71F
# notes: Full-length IgG4-AA, kappa
# B4: Hu33-6.IgG4AA (antibody)
# heavy: B1 heavy with E1K
# light: B1 light
# notes: Full-length IgG4-AA, kappa
# Key:
# [1] = target: T1, Human PD-1-His protein (Cat. #10377H08H, Sino Biological) (human, UniProt Q15116 fragment); assay: SPR (Biacore), antibody captured on Protein A chip, PD-1 in flow
# T1 construct: Bought protein; also called hPD-1-His; hu PD-1-his; not shown: His tag of the bought protein
# T1 sequence (Q15116 25-167 limits assumed): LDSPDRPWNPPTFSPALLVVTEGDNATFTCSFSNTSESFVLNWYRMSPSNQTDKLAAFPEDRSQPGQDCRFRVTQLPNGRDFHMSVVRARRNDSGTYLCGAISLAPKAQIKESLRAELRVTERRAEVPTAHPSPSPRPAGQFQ
# [2] = target: T1, Human PD-1-His protein (Cat. …); assay: ELISA, PD-1-His coated, HRP anti-human IgG detection
# [3] = target: T1, Human PD-1-His protein (Cat. …); assay: SPR (Biacore T200), antibody captured on Protein A chip, antigen in flow, 1:1 Langmuir
# [4] = target: T2, Cyno PD-1 antigen (purchased from Sino Biological) (cynomolgus monkey (Cyno; simian), UniProt B0LAJ3 25-170); assay: as above
# Sequence of UniProt B0LAJ3 (B0LAJ3 entry or part of it limits assumed): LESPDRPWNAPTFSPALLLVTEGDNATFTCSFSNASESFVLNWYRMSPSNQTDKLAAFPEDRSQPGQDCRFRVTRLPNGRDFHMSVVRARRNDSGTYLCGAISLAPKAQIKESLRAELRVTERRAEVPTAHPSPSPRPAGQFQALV
# T2 construct: Bought protein, construct not described; also called simian PD-1; not shown: Tag or carrier of the Sino Biological product (probably a His tag)
Binder,Kd [1],koff [1],kon [1],EC50 [2],OD value MAX [2],Kd [3],koff [3],kon [3],Kd [4],koff [4],kon [4]
B1,0.926 nM,0.000135 s⁻¹,146000 M⁻¹ s⁻¹,–,–,–,–,–,–,–,–
B2,1.06 nM,0.000143 s⁻¹,135000 M⁻¹ s⁻¹,–,–,–,–,–,–,–,–
B3,1.09 nM,0.000136 s⁻¹,125000 M⁻¹ s⁻¹,–,–,–,–,–,–,–,–
B4,1.08 nM,0.00014 s⁻¹,130000 M⁻¹ s⁻¹,0.206 µg/mL,1.71 OD,0.918 nM,0.000114 s⁻¹,124000 M⁻¹ s⁻¹,0.96 nM,0.000241 s⁻¹,251000 M⁻¹ s⁻¹
